About 550 (1.1%) of roughly 48,000 compounds were called active. Roughly 4% stayed inconclusive and do not appear here. Rule as the data show it: active = potency below about 15 µM; inconclusive = mostly about 16 µM to 33 µM; inactive = weaker than that. The list shows a part of the results.
biological target: Lysosomal acid glucosylceramidase (Homo sapiens) (UniProt P04062); experiment: Glucocerebrosidase; conditions: purified enzyme, resorufin glucoside fluorescence (screen aimed at inhibitors), 20 min; series mostly up to 77 µM;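 also: the screen sought inhibitors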
Method in brief: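 Wild-type enzyme at 0.2 nM final in 50mM citric acid/KH2PO4, 10mM sodium taurocholate, 0.01% tween-20, pH 5.9, with resorufin beta-D-glucopyranoside at 30 uM final. Compounds titrated, 20 min at RT, red fluorescence read; AC50 from titration.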
Potency is read from the fitted curve at half-maximal effect.

Sequence of UniProt P04062 (P04062 whole entry, looked up): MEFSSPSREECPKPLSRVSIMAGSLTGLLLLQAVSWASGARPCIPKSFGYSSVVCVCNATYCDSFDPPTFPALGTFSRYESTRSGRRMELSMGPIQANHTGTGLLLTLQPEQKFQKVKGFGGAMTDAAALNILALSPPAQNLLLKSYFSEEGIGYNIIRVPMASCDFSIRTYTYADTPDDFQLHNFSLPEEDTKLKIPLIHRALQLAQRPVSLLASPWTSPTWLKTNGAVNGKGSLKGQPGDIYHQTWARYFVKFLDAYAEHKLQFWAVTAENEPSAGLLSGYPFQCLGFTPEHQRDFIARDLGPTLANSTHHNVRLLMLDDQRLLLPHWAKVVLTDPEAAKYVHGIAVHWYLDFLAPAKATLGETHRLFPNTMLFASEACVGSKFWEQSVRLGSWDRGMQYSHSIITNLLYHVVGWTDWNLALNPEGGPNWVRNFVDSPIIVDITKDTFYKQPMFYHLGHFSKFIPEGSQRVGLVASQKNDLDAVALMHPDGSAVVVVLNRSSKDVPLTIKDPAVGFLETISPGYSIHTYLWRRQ

Potency, inactive:
Cc1ccc(S(=O)(=O)N(C)CC(=O)Nc2cccc(C)n2)cc1 > 76.9 µM
CCOC(=O)C1=C(c2ccccc2)Nc2ncnn2C1c1cccc(OC)c1OC (stereo not given) > 76.9 µM
Cc1cc(C(=O)OCC(=O)Nc2ccc(F)cc2)c(C)o1 > 76.9 µM
Fc1cccc(-c2cc3nc4c(c(N5CCN(c6cnccn6)CC5)n3n2)CCCC4)c1 > 76.9 µM
COc1cccc2sc(Nc3nc(C)c(C(C)=O)s3)nc12 > 76.9 µM
CC(O)c1nc2ccccc2n1C/C=C/c1ccccc1 (stereo not given) > 76.9 µM
COc1ccc(-c2noc(COc3ccc4ccccc4c3Br)n2)cc1OC > 76.9 µM
Cc1ccc2c(c1)N(CC(=O)OC(CC(C)C)C(=O)NC1CCCC1)C(=O)CO2 (stereo not given) > 76.9 µM
Cn1c(N)c(C(=O)COC(=O)Cc2ccsc2)c(=O)n(C)c1=O > 76.9 µM
C=C(C)CN(CC)C(=O)CSc1nc2ncc(Cl)cc2[nH]1 > 76.9 µM
CCc1ccc(C2C(C(C)=O)=C(C(=O)OC)Nc3nnnn32)cc1 (stereo not given)
COc1cc(C(=S)N2CCC(C(N)=O)CC2)ccc1O > 76.9 µM
Cc1ccc(Nc2nc(N)nc(CSc3nnc(-c4ccncc4)o3)n2)cc1 > 76.9 µM
Clc1cccc2sc(N3CCN(c4ccccc4)CC3)nc12 > 76.9 µM
CN(Cc1nc2ccccc2n1C)C(=O)c1cccs1 > 76.9 µM
CC1CCCCN1C(=O)CSc1nc2ccccc2n1CC(=O)N1CCc2ccccc21 (stereo not given) > 76.9 µM
CCCC(=O)Nc1cccn(Cc2ccccc2Br)c1=O > 76.9 µM
O=C(Nc1ccc(S(=O)(=O)N2CCC(C(=O)NC3CCCCC3)CC2)cc1)c1ccco1 > 76.9 µM
CCOC(=O)C(Cc1cc(C(C)=O)ccc1OCC)C(=O)OCC > 76.9 µM
COc1ccc(-c2noc(CCC(=O)N3CCN(c4cccc(C(F)(F)F)c4)CC3)n2)cc1 > 76.9 µM
CCn1c(SC)nnc1-c1sc2cc(Cl)ccc2c1Cl > 76.9 µM
Cn1c(=O)n(CC(=O)NCc2cccnc2)c2ccccc21 > 76.9 µM
COc1ccccc1NC(=O)CN(C)S(=O)(=O)c1ccc(F)cc1 > 76.9 µM
O=C(OCc1nc2ccccc2s1)C1CCN(C2=NS(=O)(=O)c3ccccc32)CC1 > 76.9 µM
O=C(c1sc2ccccc2c1Cl)N(Cc1ccco1)C1CCS(=O)(=O)C1 (stereo not given) > 76.9 µM
CC1(C)c2ccccc2N2CC(=O)N(CC(N)=O)C21C (stereo not given) > 76.9 µM
Cc1cc(NC(=O)c2cc3ccccc3o2)cc(C)c1OCC(=O)N1CCOCC1 > 76.9 µM
CCC(Sc1nc(N)cc(=O)[nH]1)C(=O)NC(C(=O)OC)c1ccccc1 (stereo not given) > 76.9 µM
c1ccc(OCc2nn3c(-c4n[nH]c5c4CCC5)nnc3s2)cc1 > 76.9 µM
O=C(NC(Cc1ccccc1)C(=O)O)c1ccc(S(=O)(=O)N2CCOCC2)cc1 (stereo not given) > 76.9 µM
CCCN(CCC)C(=O)CCS(=O)(=O)c1cccc2nsnc12 > 76.9 µM
Clc1ccc(NC2=NCCCCC2)cc1 > 76.9 µM
COc1ccc(CC(=O)Nc2ccc(OC)c(NC(=O)c3ccco3)c2)cc1 > 76.9 µM
CC(=O)N1c2c(cc(Br)cc2S(=O)(=O)NCC2COc3ccccc3O2)CC1C (stereo not given) > 76.9 µM
Cc1cccc(OCc2nnc(SCC(=O)Nc3cc(C)on3)n2C)c1 > 76.9 µM
Cc1cc(C(=O)Nc2c(C)nn(Cc3ccccc3Cl)c2C)no1 > 76.9 µM
CC1CCN(CCCn2c(=S)[nH]c3ccc(N4CCOCC4)cc3c2=O)CC1 > 76.9 µM
CCn1c(=S)sc2c(=O)n(-c3ccccc3)c(SCC(=O)NCc3ccco3)nc21
CCOC(=O)N1CCN(C(=O)c2cc(-n3cnnc3)ccc2Cl)CC1 > 76.9 µM
Cc1cc(Nc2ccccc2)n(CCC#N)n1 > 76.9 µM
Cc1ccc(NC(=O)c2cccs2)cc1NC(=O)c1ccco1 > 76.9 µM
CCOC(=O)C1CCN(C(=O)c2n[nH]c(=O)c3ccccc23)CC1 > 76.9 µM
O=C(NCc1ccc(F)cc1)C1CCCN(C(=O)Nc2ccccc2)C1 (stereo not given) > 76.9 µM
O=C(NCc1ccco1)c1c[nH]c2ccc(S(=O)(=O)N3CCOCC3)cc2c1=O > 76.9 µM
Cc1ccccc1NC(=O)c1c(O)c2cccc3c2n(c1=O)CC3 > 76.9 µM
COc1ccccc1N(C(C)=O)C1SC(=O)N(c2ccccc2)C1=O (stereo not given) > 76.9 µM
CCNS(=O)(=O)c1cc(S(C)(=O)=O)ccc1Cl > 76.9 µM
CCCC1C2CN(C(C)=O)CC=C2C(C#N)=C(N)C1(C#N)C#N (stereo not given) > 76.9 µM
COc1ccc(C)cc1S(=O)(=O)N(C)CC(N)=O > 76.9 µM
O=C(Cc1ccccc1)Nc1ccc(NC(=O)c2ccco2)nc1 > 76.9 µM
CC1(C)Cc2c(c(-c3ccccc3)[nH]c(=O)c2C#N)CO1 > 76.9 µM
COc1cc(C(=O)OC2CCN(C)CC2)cc(OC)c1OC > 76.9 µM
COc1cc(OC)cc(-c2cc3nc(C)c(CCC(=O)NC(C)CCc4ccco4)c(C)n3n2)c1 (stereo not given) > 76.9 µM
N=c1c2c(n(Cc3ccc(Cl)cc3)c3c1CCC3)CCC2 > 76.9 µM
CCCn1c(SCC(=O)Nc2nnc(CC)s2)nc2c1c(=O)n(C)c(=O)n2C > 76.9 µM
CC1Cc2ccccc2N1C(=O)COC(=O)c1ccc(S(=O)(=O)N(C)C)cc1 (stereo not given) > 76.9 µM
NC(=O)c1c(NC(=O)CSc2nnc(-c3ccccc3)n2CC2CCCO2)sc2c1CCC2 (stereo not given) > 76.9 µM
CN1c2ccccc2N(C)C1c1ccc2c(c1)OCO2 > 76.9 µM
O=C(NCc1ccncc1)C1CCCN(S(=O)(=O)Cc2ccccc2)C1 (stereo not given) > 76.9 µM
O=c1[nH]c(Cc2cccs2)nc2ccccc12 > 76.9 µM
O=c1oc2cc(O)ccc2cc1-c1ccc(F)cc1 > 76.9 µM
O=C(O)CCC(=O)NCCn1c(-c2ccccc2)csc1=Nc1ccccc1 > 76.9 µM
Cc1ccc2cc(C#N)c(NCCNC(=O)C3CC3)nc2c1C > 76.9 µM
COc1ccc2[nH]c3c(=O)n(CCCCC(=O)N4CCC(C(N)=O)CC4)c(=S)[nH]c3c2c1 > 76.9 µM
COc1ccc(S(=O)(=O)N2CCc3ccccc32)cc1C(=O)OCc1nnc(-c2ccccc2)o1 > 76.9 µM
Cc1cc(C(=O)CN2C(=O)NC3(CCCc4ccccc43)C2=O)c(C)n1Cc1cccs1 (stereo not given) > 76.9 µM
COc1cccc(-n2ccnc2SCC(=O)NCc2ccccc2)c1 > 76.9 µM
O=C(CSc1ncnc2nc[nH]c12)N1CCN(c2ccc(Cl)cc2)CC1 > 76.9 µM
O=C(c1cccn2c(=O)c3ccc(Cl)cc3nc12)N1CCN(Cc2ccc3c(c2)OCO3)CC1 > 76.9 µM
COCCN(C(=O)C(F)(F)F)C(C(=O)NC1CCCCC1)c1ccco1 (stereo not given) > 76.9 µM
CS(=O)(=O)c1ccc(Cl)c(NC(=O)C2CC(=O)N(Cc3ccccc3)C2)c1 (stereo not given) > 76.9 µM
CCn1c(CNc2cccc(Cl)c2)nnc1SCc1ccccc1
CC1CC(C)CN(CCCNC(=O)c2ccc3c(c2)NC(=O)C(N2CCCCC2)S3)C1 (stereo not given) > 76.9 µM
O=C(CCn1c(=O)[nH]c2ccsc2c1=O)N1CCc2ccccc2C1 > 76.9 µM
COc1ccccc1CN1CC(C(=O)NCC2CCCO2)CC1=O (stereo not given) > 76.9 µM
O=S(=O)(c1ccccc1)n1nc(-c2ccccc2)nc1NCc1ccco1 > 76.9 µM
COc1ccc(/C(O)=C2/C(=O)C(=O)N(CCCC(=O)O)C2c2ccc(OC)c(OC)c2)cc1 (stereo not given) > 76.9 µM
CN1CCN(/C=C2\SC(=S)NC2=O)CC1 > 76.9 µM
CCCCCC(=O)Nc1ccc(Cl)cn1 > 76.9 µM
CCc1c(C)c2ccc(OCC(=O)OC(C)C)c(C)c2oc1=O > 76.9 µM
Cc1nn(-c2ccccc2)c(C)c1C(=O)OCC(=O)N1CC(=O)Nc2ccccc21 > 76.9 µM
CCC1(C)CC(=O)N(c2ccc(C(=O)O)c(O)c2)C1=O (stereo not given) > 76.9 µM
CCn1c(NCc2cccs2)nc2ccccc21 > 76.9 µM
CC(C)CCn1c(=S)[nH]c2ncccc2c1=O > 76.9 µM
COc1cc(OC)cc(C(=O)NCc2n[nH]c(=S)n2-c2ccccc2)c1 > 76.9 µM
CC(CCc1ccccc1)NC(=O)COC(=O)C1=COCCO1 (stereo not given) > 76.9 µM
COC(=O)c1cccc(COC(=O)c2ccccc2NC(=O)c2ccco2)c1 > 76.9 µM
O=C(Oc1cccc2c(O)cccc12)c1ccccc1 > 76.9 µM
COc1ccc(-c2ccnc(SCC(=O)N3CCOCC3)n2)cc1 > 76.9 µM
CC1CCN(c2nc3c(c(=O)n(C)c(=O)n3C)n2CCSc2nc3ccccc3s2)CC1 > 76.9 µM
